The values below come from the supplement of paper PMC8007513.

Counter-ions that a name gives are not always drawn. ± gives the standard error. Hit rate of the full screen: of about 1,300 compounds, about 130 (10%) showed an effect of 50% or more. Only a part is listed here, and it is no random draw.

This assay concerns Trichoderma virens ATCC 9645. In words: growth yield (OD600) with compound + IPBC relative to untreated control; higher = less growth inhibition. The note with it: compound concentration: 100 uM, IPBC concentration: 200 ng/ml. In outline: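 A biocide at 200 ng ml^−1 was co-applied to some wells, and library compounds were present in all test wells at 100 μM final. The wells held 100 μl of Trichoderma virens ATCC 9645 spores at 15,000 spores ml^−1 in potato dextrose broth, grown at 30 °C in 96-well plates, with OD600 read at 40 h and 72 h. Results are relative growth against the control without either agent, averaged across duplicate screens.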

As for `CC(=O)N1CCN(c2ccc(OCC3COC(Cn4ccnc4)(c4ccc(Cl)cc4Cl)O3)cc2)CC1` (configuration not stated) [Ketoconazole] + CCCCNC(=O)OCC#CI [3-iodo-2-propynyl butylcarbamate (IPBC)], the growth yield (40 h) was 3.34 ± 0.48% and the growth yield (72 h) turned out to be 2.52 ± 0.42%.
Turning to `CCN(CC)CCCC(C)Nc1c2ccc(Cl)cc2nc2ccc(OC)cc12` (configuration not stated) [Quinacrine dihydrochloride hydrate] + CCCCNC(=O)OCC#CI [3-iodo-2-propynyl butylcarbamate (IPBC)], the growth yield by setting is: (40 h) 64.8 ± 12%; (72 h) 92.3 ± 2.9%.
In the case of `CCCCCCCCCCCCCCCC[N+](C)(C)CCN(Cc1ccc(OC)cc1)c1ncccn1` [Thonzonium bromide] + CCCCNC(=O)OCC#CI [3-iodo-2-propynyl butylcarbamate (IPBC)], the growth yield was found to be 3.34 ± 0.16% (40 h) and 2.62 ± 0.1% (72 h).
For `C[C@@H]1CC[C@H]2[C@@H](C)C(=O)O[C@@H]3O[C@@]4(C)CC[C@@H]1[C@]32OO4` [Artemisinin] + CCCCNC(=O)OCC#CI [3-iodo-2-propynyl butylcarbamate (IPBC)], the growth yield came to 32.4 ± 1.3% (40 h) and 76.3 ± 1.1% (72 h).
For `COC(=O)[C@H]1[C@H]2C[C@@H]3c4[nH]c5cc(OC)ccc5c4CCN3C[C@H]2C[C@@H](OC(=O)c2cc(OC)c(OC)c(OC)c2)[C@@H]1OC` [Reserpine] + CCCCNC(=O)OCC#CI [3-iodo-2-propynyl butylcarbamate (IPBC)], the growth yield is, setting by setting: (40 h) 102 ± 3.2%; (72 h) 104 ± 2%.
In the case of `CNC(=C[N+](=O)[O-])NCCSCc1ccc(CN(C)C)o1` [Ranitidine hydrochloride] + CCCCNC(=O)OCC#CI [3-iodo-2-propynyl butylcarbamate (IPBC)], the growth yield reads like this: (40 h) 107 ± 1.4%; (72 h) 109 ± 2.7%.
As for `CC(C)C[C@H](NC(=O)[C@@H](O)[C@H](N)Cc1ccccc1)C(=O)O` [Ubenimex] + CCCCNC(=O)OCC#CI [3-iodo-2-propynyl butylcarbamate (IPBC)], the growth yield by setting is: (40 h) 111 ± 3.8%; (72 h) 102 ± 2.3%.
Consider `CCOC(=O)Nc1ccc2c(c1)N(C(=O)CCN1CCOCC1)c1ccccc1S2` [Moricizine hydrochloride] + CCCCNC(=O)OCC#CI [3-iodo-2-propynyl butylcarbamate (IPBC)], for which the growth yield runs as follows: (40 h) 81 ± 2.9%; (72 h) 91.7 ± 1.9%.
`C[C@@H](c1ncncc1F)[C@](O)(Cn1cncn1)c1ccc(F)cc1F` [Voriconazole] + CCCCNC(=O)OCC#CI [3-iodo-2-propynyl butylcarbamate (IPBC)]: the growth yield (40 h) came out at 5.24 ± 0.16% and the growth yield (72 h) amounted to 4.09 ± 0.1%.
Turning to `O=C(O)Cc1ccccc1Nc1c(Cl)cccc1Cl` [Diclofenac sodium] + CCCCNC(=O)OCC#CI [3-iodo-2-propynyl butylcarbamate (IPBC)], the growth yield (40 h) turned out to be 44.79 ± 0.32%.
Same read-out and setting: the value for `CN1CCN(CCCN2c3ccccc3Sc3ccc(S(=O)(=O)N(C)C)cc32)CC1` [Thioproperazine dimesylate] + CCCCNC(=O)OCC#CI [3-iodo-2-propynyl butylcarbamate (IPBC)] was 37.8 ± 0.95%.
In the case of `CC(=O)Oc1cc(C(F)(F)F)ccc1C(=O)O` [Triflusal] + CCCCNC(=O)OCC#CI [3-iodo-2-propynyl butylcarbamate (IPBC)], the growth yield turned out to be 72.9 ± 2.4% (40 h) and 87 ± 2.1% (72 h).
In the case of `CCN(C(C)=O)c1cccc(-c2ccnc3c(C#N)cnn23)c1` [Zaleplon] + CCCCNC(=O)OCC#CI [3-iodo-2-propynyl butylcarbamate (IPBC)], the growth yield (40 h) came to 81.009 ± 1e-14% and the growth yield (72 h) was 88.94 ± 0.42%.
Turning to `NCCc1c[nH]c2ccc(O)cc12` [Serotonin hydrochloride] + CCCCNC(=O)OCC#CI [3-iodo-2-propynyl butylcarbamate (IPBC)], the growth yield by setting is: (40 h) 100 ± 8.1%; (72 h) 100 ± 3.6%.
As for `O=c1[nH]cc(F)c(=O)[nH]1` [5-fluorouracil] + CCCCNC(=O)OCC#CI [3-iodo-2-propynyl butylcarbamate (IPBC)], the growth yield (40 h) amounted to 36.9%.
On to `CS(=O)(=O)c1ccc([C@@H](O)[C@@H](CO)NC(=O)C(Cl)Cl)cc1` [Thiamphenicol] + CCCCNC(=O)OCC#CI [3-iodo-2-propynyl butylcarbamate (IPBC)], for which the growth yield was 89.11 ± 0.16% (40 h) and 93.03 ± 0.52% (72 h).
On to `CCC(COC(=O)c1cc(OC)c(OC)c(OC)c1)(c1ccccc1)N(C)C` (configuration not stated) [Trimebutine] + CCCCNC(=O)OCC#CI [3-iodo-2-propynyl butylcarbamate (IPBC)], for which the growth yield (40 h) stood at 84 ± 4% and the growth yield (72 h) was found to be 87.3 ± 2.3%.
For `O=C1C(CC[S+]([O-])c2ccccc2)C(=O)N(c2ccccc2)N1c1ccccc1` (configuration not stated) [Sulfinpyrazone] + CCCCNC(=O)OCC#CI [3-iodo-2-propynyl butylcarbamate (IPBC)], the growth yield runs as follows: (40 h) 106 ± 9.2%; (72 h) 105 ± 2.4%.
With `CC(=O)O[C@]1(C(C)=O)CC[C@H]2[C@@H]3C=C(C)C4=CC(=O)CC[C@@H]4[C@H]3CC[C@@]21C` [Nomegestrol acetate] + CCCCNC(=O)OCC#CI [3-iodo-2-propynyl butylcarbamate (IPBC)], the growth yield by setting is: (40 h) 75.77 ± 0.48%; (72 h) 88.1 ± 5.5%.
In the case of `C#C[C@]1(O)CC[C@H]2[C@@H]3CCC4=CC(=O)CC[C@@H]4[C@H]3CC[C@@]21C` [Norethindrone] + CCCCNC(=O)OCC#CI [3-iodo-2-propynyl butylcarbamate (IPBC)], the growth yield by setting is: (40 h) 55.1 ± 1.4%; (72 h) 83.06 ± 0.63%.
In the case of `Nc1ccc(S(=O)(=O)Nc2ncccn2)cc1` [Sulfadiazine] + CCCCNC(=O)OCC#CI [3-iodo-2-propynyl butylcarbamate (IPBC)], the growth yield turned out to be 85.5 ± 2.5% (40 h) and 92.7 ± 4.2% (72 h).
Consider `CCN(CC)CCOC(=O)C1(c2ccc([N+](=O)[O-])cc2)CCCC1` [Nitrocaramiphen hydrochloride] + CCCCNC(=O)OCC#CI [3-iodo-2-propynyl butylcarbamate (IPBC)], for which the growth yield reads like this: (40 h) 94.4 ± 11%; (72 h) 101 ± 5.1%.
For `Clc1ccccc1CN1CCc2sccc2C1` [Ticlopidine hydrochloride] + CCCCNC(=O)OCC#CI [3-iodo-2-propynyl butylcarbamate (IPBC)], in that order: 87.5 ± 2.4% and 92.7 ± 2.5%.
With `Nc1ccc(O)c(C(=O)O)c1` [Mesalamine] + CCCCNC(=O)OCC#CI [3-iodo-2-propynyl butylcarbamate (IPBC)], the growth yield by setting is: (40 h) 86.4%; (72 h) 89.14 ± 0.84%.
Taken in the same sequence, the figures for `Cc1cc(NC(=O)C2=C(O)c3ccccc3S(=O)(=O)N2C)no1` [Isoxicam] + CCCCNC(=O)OCC#CI [3-iodo-2-propynyl butylcarbamate (IPBC)] were 72.6 ± 3% and 86.7 ± 1.4%.
